Laboratory results from patent US20130209396A1 (ELEVEN BIOTHERAPEUTICS, published 2013).

Biological target: T1, soluble recombinant human IL-1RI (corresponding to the extracellular domain of IL-1RI) (human, UniProt P14778 18-336)
T1 construct: extracellular domain; also called interleukin-1 receptor I; immobilized soluble IL-1RI
T1 sequence (looked up): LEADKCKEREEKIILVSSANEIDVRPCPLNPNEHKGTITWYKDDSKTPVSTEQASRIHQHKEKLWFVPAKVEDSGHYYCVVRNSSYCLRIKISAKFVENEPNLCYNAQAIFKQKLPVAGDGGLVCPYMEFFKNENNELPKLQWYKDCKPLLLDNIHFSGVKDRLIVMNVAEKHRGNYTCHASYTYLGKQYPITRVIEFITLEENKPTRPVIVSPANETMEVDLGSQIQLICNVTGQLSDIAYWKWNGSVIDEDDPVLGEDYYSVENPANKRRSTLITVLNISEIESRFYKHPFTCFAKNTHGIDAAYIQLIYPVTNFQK
Assay: SPR (Reichert SR7000DC), immobilized soluble human IL-1RI
Method: The binding properties of proteins for soluble recombinant human IL-1RI (corresponding to the extracellular domain of IL-1RI) were evaluated using surface plasmon resonance with a Reichert SR7000DC Dual Channel SPR system. Binding was evaluated in phosphate buffered saline with 0.005% Tween 20. […] Thus, the P01 protein bound to IL-1RI with a greater affinity than did IL-1β under similar conditions.

Kd: 0.326 nM
koff: 6.58e-05 s⁻¹
kon: 201000 M⁻¹ s⁻¹
B1: IL-1Ra (human) (ligand)
chain: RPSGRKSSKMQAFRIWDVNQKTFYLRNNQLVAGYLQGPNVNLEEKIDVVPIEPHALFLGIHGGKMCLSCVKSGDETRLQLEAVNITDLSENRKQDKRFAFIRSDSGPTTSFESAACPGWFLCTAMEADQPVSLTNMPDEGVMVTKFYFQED
notes: also called IL-1 receptor antagonist
